This is an account of results in PubChem BioAssay AID1963576 (National Center for Advancing Translational Sciences (NCATS), 2024).

About 60 (0.1%) of roughly 46,000 compounds were called active. Not shown: some 3% with an inconclusive outcome. The call rests on the fitted dose curve; in most records, active means well fitted inhibition curve with a large enough effect; inconclusive means small, poorly fitted or top-dose-only effect; inactive means no such curve, though single readings can be large or run the other way. The list shows a part of the results.

The assay in a line: Primary qHTS assay for Inhibitors of ovarian cancer metastasis using an organotypic tumor microenvironment (TME) model. Further: nearly all actives have a fitted effect of over 65% in size.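 On activity change, negative = inhibition: plate controls were DMSO wells for no effect and tomatine positive control wells for full effect.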 The note with it: SKOV3ip1-GFP adhesion/invasion on 3D omental model, fluorescence; series mostly up to 45.8 µM; activity change, negative = inhibition: at the top concentration. In outline: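 Adhesion/invasion was scored as fixed GFP-labeled SKOV3ip1 cell counts (488/509 nm), normalized to DMSO and tomatine controls. Cancer cells in serum-free medium, with four compound doses (0.36-46 umol/L), sat 2 hr at RT then 16 hr at 37 C on a 48 hr fibroblast/mesothelial/ECM culture.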
Take `COc1ccccc1-c1nnc(C2CCN(S(=O)(=O)c3ccc(F)c(C)c3)CC2)o1`: the “activity change, negative = inhibition” value was inactive: 3.08%.

`Cc1noc(C)c1S(=O)(=O)NCCc1csc2nc(-c3ccc(Cl)cc3)nn12`: the “activity change, negative = inhibition” value was inactive: -5.37%. For the molecule `CCOC(=O)c1c(NC(=O)COc2ccc(Br)cc2)sc(C(C)=O)c1C`, the “activity change, negative = inhibition” value is inactive: -5.63%. For the molecule `Cc1ccc(C(=O)NCC(c2cccnc2)N2CCc3ccccc3C2)cc1C` (stereo unspecified), the “activity change, negative = inhibition” value was inactive: 14.3%.

With `CCOc1ccc(C(=O)c2c(N)c(-c3nc(-c4ccc(OCC)cc4)cs3)c3ccccn23)cc1`, the molecule was classed as inactive. For `Cc1ccc(NC(=O)Cn2c(=O)n(Cc3ccccc3)c(=O)c3c2c2cc(C)ccc2n3C)cc1`, the outcome was inactive. As for `CC(=O)Nc1cccc(-c2cn3cccnc3n2)c1`, the “activity change, negative = inhibition” value was inactive: -2.46%.

For the molecule `COc1ccc2nc(NC(=O)c3cc(=O)c4cc(C)c(C)cc4o3)sc2c1`, the “activity change, negative = inhibition” value is inactive: 2.38%. Regarding `Cc1ccc(Cl)cc1NS(=O)(=O)c1ccc(N2CCCCS2(=O)=O)cc1`, the result was inactive. Take `Cc1nc(-c2ccc(F)cc2)sc1CCNC(=O)c1ccc(C(C)(C)C)cc1`: the “activity change, negative = inhibition” value was inactive: -5.39%.

For `N#Cc1ccccc1OCC(=O)N1CCN(c2ccccc2F)CC1`, the “activity change, negative = inhibition” value is inactive: -0.0486%. On to `Nc1c(C(=O)c2ccccc2)sc(Nc2ccc(Cl)c(Cl)c2)c1C(=O)Nc1ccccc1`, for which the “activity change, negative = inhibition” value was inactive: 3.28%.

On to `Cc1cccc(NC(=O)c2sc(-n3nc(C)c(CCC(C)C)c3C)nc2C)c1`, for which the “activity change, negative = inhibition” value was inactive: -9.83%. For `Cc1ccc2c(c1)N(C(=O)N1CCC(C(=O)NCc3ccccc3F)CC1)CC(C)O2` (stereo unspecified), the “activity change, negative = inhibition” value was inactive: 5.88%. With `CCOC(=O)CSc1nc2c(sc3ccccc32)c(=O)n1Cc1ccc(OC)cc1`, the “activity change, negative = inhibition” value was inactive: -12.4%.

In the case of `COc1ccc(-n2c3c(cc(-c4nc(-c5ccc(Cl)cc5)cs4)c2=O)C(=O)CC(C)(C)C3)cc1Cl`, the “activity change, negative = inhibition” value is inactive: 6.25%. On to `CCOc1ccc(NC(=O)CCSc2nc(-c3ccc4c(c3)OCO4)cc(C(F)(F)F)n2)cc1`, for which the “activity change, negative = inhibition” value is inactive: -6.26%. Turning to `COc1cc2ccccc2cc1C(=O)Nc1ccc2oc(-c3cccc(C)c3)nc2c1`, the “activity change, negative = inhibition” value is inactive: -3.81%. The same measure, in the same setting: with `COc1ccc(OC)c(NC(=O)N2CCN(Cc3nc4ccc(C)cc4o3)CC2)c1` the figure was inactive: -27%.

On to `COc1ccc(CCNc2nc3cc(OC)c(OC)cc3c3nc(-c4cccnc4)nn23)cc1OC`, for which the molecule was called inactive. On to `COc1ccc(-c2cn3c(n2)sc2cc(C(=O)Nc4ccc(C)cc4C)ccc23)cc1`, for which the “activity change, negative = inhibition” value is inactive: -19.5%. With `O=S(=O)(c1ccccc1)c1nc(-c2ccccc2F)oc1N1CCOCC1`, the “activity change, negative = inhibition” value was inactive: 27.7%.

Consider `CN(C(=O)Cn1nnc(-c2ccc(S(C)(=O)=O)cc2)n1)c1ccccc1`, for which the “activity change, negative = inhibition” value is inactive: -14.1%. Consider `CCN1C(=O)c2ccccc2Sc2ccc(NC(=O)c3ccc(C#N)cc3)cc21`, for which the “activity change, negative = inhibition” value is inactive: -9.24%. On the same count and under the same terms, with `Cc1ccccc1NCc1nc2ccccc2n1CCOc1ccccc1` the figure was inactive: -9.33%; with `COc1ccc(NC(=O)CSc2oc(-c3ccco3)nc2S(=O)(=O)c2ccccc2)c(OC)c1`, inactive: -16.2%.
